In article PMC4336329 (PLoS ONE, 2015):
About 14,000 (4.5%) of roughly 310,000 compounds showed an effect of 50% or more. Effects have a minus sign here. This is one part of the list.

Each compound was assayed against human ether-à-go-go-related gene (hERG) potassium channel (human, UniProt Q12809) (assay: primary screen, population patch clamp on CHO cells stably expressing hERG).
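Note: peak tail current of the secondary pulse compared with the same well before compound.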

human ether-à-go-go-related gene (hERG) potassium channel, sequence (Q12809 whole entry, looked up): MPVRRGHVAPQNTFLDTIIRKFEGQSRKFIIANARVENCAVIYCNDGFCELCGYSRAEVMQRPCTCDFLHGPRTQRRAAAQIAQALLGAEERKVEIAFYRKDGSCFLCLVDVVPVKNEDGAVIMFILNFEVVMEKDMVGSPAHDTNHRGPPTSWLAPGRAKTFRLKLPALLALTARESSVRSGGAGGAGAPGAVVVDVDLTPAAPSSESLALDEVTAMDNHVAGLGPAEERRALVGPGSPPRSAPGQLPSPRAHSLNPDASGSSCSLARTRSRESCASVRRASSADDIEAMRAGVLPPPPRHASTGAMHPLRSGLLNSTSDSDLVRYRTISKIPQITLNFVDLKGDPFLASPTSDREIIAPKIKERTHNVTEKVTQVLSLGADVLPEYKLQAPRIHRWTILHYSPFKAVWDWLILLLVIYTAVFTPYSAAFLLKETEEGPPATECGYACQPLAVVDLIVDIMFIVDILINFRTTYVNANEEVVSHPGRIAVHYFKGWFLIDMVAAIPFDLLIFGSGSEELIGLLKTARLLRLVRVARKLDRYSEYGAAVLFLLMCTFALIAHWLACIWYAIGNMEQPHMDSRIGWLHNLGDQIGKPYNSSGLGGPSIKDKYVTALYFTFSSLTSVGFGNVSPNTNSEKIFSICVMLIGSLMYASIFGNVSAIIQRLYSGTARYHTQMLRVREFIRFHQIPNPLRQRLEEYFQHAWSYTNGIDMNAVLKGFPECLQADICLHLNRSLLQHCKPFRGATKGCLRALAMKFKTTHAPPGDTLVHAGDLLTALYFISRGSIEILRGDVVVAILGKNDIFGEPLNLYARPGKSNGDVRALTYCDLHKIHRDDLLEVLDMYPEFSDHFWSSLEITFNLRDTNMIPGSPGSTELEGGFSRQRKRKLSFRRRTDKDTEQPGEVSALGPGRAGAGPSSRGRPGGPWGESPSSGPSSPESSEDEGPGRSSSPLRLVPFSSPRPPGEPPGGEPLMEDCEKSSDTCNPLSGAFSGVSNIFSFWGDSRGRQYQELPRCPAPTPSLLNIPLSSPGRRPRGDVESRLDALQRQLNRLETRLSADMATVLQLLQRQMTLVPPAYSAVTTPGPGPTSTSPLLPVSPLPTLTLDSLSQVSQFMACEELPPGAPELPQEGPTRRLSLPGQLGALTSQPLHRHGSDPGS

SMILES | hERG current change (%, negative = inhibition) at 10uM [%]
N#C/C(=C\c1cccc(O)c1)C(=O)N1CCCCC1 | 20.6
COC(=O)c1ccc(NC(=O)C2CCN(S(C)(=O)=O)CC2)cc1 | 13.4
O=C(CCC(=O)OCC(F)(F)C(F)F)Nc1ccc(F)cc1F | 14.9
CCOC(=O)c1ccc(NC(=O)c2cccc3c2C(=O)N(CC2CCCO2)C3)cc1 (stereo not shown) | -2.27
COC(=O)C1=C(c2cccc(OCc3ccccc3)c2)C[C@@H]2CC[C@H]1N2C(=O)NCCCc1ccccc1 | -6.16
Cc1ccc(-c2cn(-c3ccccc3F)c(=S)[nH]2)cc1 | 36.6
CCOc1ccc(C(=O)CCC(=O)NC(C)C(=O)OC)cc1 (stereo not shown) | 1.18
CCOC(=O)Nc1ccc2c(c1)N(CCCN(C)C)c1ccccc1CC2.Cl | -44.8
O=C(CNS(=O)(=O)c1cccs1)NCc1ccc(F)cc1 | 17.5
CSCCC(NC(=O)c1ccco1)c1nc2ccccc2[nH]1 (stereo not shown) | -41.6
CC1CCN(Cc2c(C(=O)N3CCc4ccccc4C3)nc3ccc(Cl)cn23)CC1 | -31.7
O=C(CSc1nc2ccccc2c(=O)[nH]1)N1CCCCCC1 | 10.1
O=C(Cc1cccc2ccccc12)Nc1ccc(-c2cc3ccccc3oc2=O)cc1 | -15.4
O=S(=O)(c1ccc(OCC(O)CN2CCCC2)cc1)N1CCOCC1 (stereo not shown) | 11.2
CCCCCn1nnc2c(=O)oc3ccccc3c21 | -9.32
CSC1=NCCN1C(=O)Cc1cccs1 | -5.77
Cc1ccc(-c2csc(NC(=O)C3=COCCO3)n2)cc1 | -3.61
N#Cc1ccc(S(=O)(=O)NC2CC2)cc1 | 30.5
COc1ccc(NC(=O)c2cccc(S(=O)(=O)N3CCCCC3)c2)c(OC)c1 | -29.9
Cc1ccc(C(=O)n2cnc3ccccc32)cc1C | 6.11
CC(=O)Nc1ccc(NC(=O)[C@@H]2CCCC[C@@H]2C(=O)O)cc1 | 10.2
O=[N+]([O-])c1ccc(-c2nc(-c3ccncc3)no2)cc1 | -16

SMILES | hERG current change (%, negative = inhibition) at 10uM [%]
COCCNS(=O)(=O)c1ccc(-c2ccc(C)cc2)cc1 | 3.72
COC(=O)c1ccccc1NC(=O)c1cc[n+]([O-])cc1 | 10.9
COc1ccc(CN(C)CC(=O)Nc2ccccc2C(F)(F)F)c(OC)c1.O=C(O)C(=O)O | -0.141
CCOc1cc(-c2nc(C)c(C(C)=O)n2O)ccc1OCC(=O)Nc1ccccc1 | -0.49
CCCCCC(=O)Nc1ccc2ccccc2c1 | 2.5
Cc1ccccc1-c1noc(-c2ccc(O)cc2)n1 | -6.18
CCOC(=O)CNC(=O)Cn1cnc2c(oc3ccccc32)c1=O | 6.54
COc1cc(C(=O)NNC(=O)c2ccc(F)cc2)ccc1OCC(=O)N1CCOCC1 | 2.15
CC(C)(O)C#Cc1ccc(C(=O)N2CCCC(CCC(=O)NCc3ccccc3F)C2)cc1 (stereo not shown) | 3.95
CCOC(=O)CNC1CC(=O)N(c2cccc(Cl)c2)C1=O (stereo not shown) | -0.687
O=C(Oc1ccc([N+](=O)[O-])cc1)c1cncc(Br)c1 | -9.62
O=C(O)COCC(=O)NCc1csc2ccc(Cl)cc12 | 13.8
COc1ccc(CNCc2ccncc2)c(OC)c1.Cl | -0.685
CCC1=Nc2cc(C(=O)NCc3ccco3)ccc2Sc2ccccc21 | -6.24
CCc1cccc(NC(=O)CCS(=O)(=O)c2ccc3c(c2)NC(=O)CO3)c1 | -5.83
COc1ccc(N2CCN(C(=O)CCN3C(=O)C4C5C=CC(C5)C4C3=O)CC2)cc1 (stereo not shown) | -0.214
NC(=O)C1CCN(C(=O)c2ccccc2CCc2ccccc2)CC1 | 14.1
COc1cccc(-c2nnc(NC(=O)c3ccc(Cl)s3)o2)c1 | -2.19
Cc1cc(C)cc(N2C(=O)CC(Sc3ncn[nH]3)C2=O)c1 (stereo not shown) | 26.7
Nc1ccccc1C#Cc1ccccc1 | 4.89
COc1ccc(/C=N/NC(=O)c2cccnc2)cc1CN1CCCc2ccccc21 | -27.4
Cn1c(=O)c2c(nc(NCc3ccco3)n2C/C=C/c2ccccc2)n(C)c1=O | 7.99

SMILES | hERG current change (%, negative = inhibition) at 10uM [%]
Cc1c(OCC(=O)NCCCN2CCOCC2)ccc2c3c(c(=O)oc12)CCCC3 | -18.1
Cn1c(CNC(=O)CNC(=O)c2cccc(Cl)c2)cc(=O)n(C)c1=O | 17.7
O=C(O)CCCNC(=O)/C=C/c1ccco1 | 12.5
Cc1cc(NS(=O)(=O)c2cccc([N+](=O)[O-])c2)no1 | 28.8
Cc1cc(C)c(Cn2cnc3ccccc32)c(C)c1 | -20.2
Cc1cc(N2CCN(C)CC2)nc2ccc(NC(=O)c3ccc(Br)o3)cc12 | -77.4
COc1ccc(C(c2c(C)n(C)n(-c3ccccc3)c2=O)c2c(C)n(C)n(-c3ccccc3)c2=O)cc1OC | 16
CC[n+]1c(S(=O)(=O)[O-])ccc2ccc(C)cc21 | 6.26
CCn1c(C(O)c2cc(OC)ccc2OC)nc2ccccc21 (stereo not shown) | 9.66
COc1ccc(NS(=O)(=O)c2cc(N/C(=N\S(=O)(=O)c3ccccc3)c3ccc(F)cc3)ccc2Cl)cc1 | -0.199
COc1ccccc1CNC(=O)CN1CCN(Cc2ccc(Cl)cc2)C1=O | -10.9
COc1ccccc1/C=N/OCc1cc(C(C)=O)ccc1OC | 10.1
CCOC(=O)c1sc2ncn(CC(=O)NCC3CCCO3)c(=O)c2c1C (stereo not shown) | 2.14
Cc1ccc(S(=O)(=O)N(C)CC(=O)NCCc2c[nH]c3ccccc23)cc1 | -29.6
Cc1ccc(NC(=O)COC(=O)c2ccccc2Cl)cc1S(=O)(=O)N(C)C | -30.4
CCOC(=O)c1ccc(NC(=O)CN2C(=O)NC3(CCC(C)CC3)C2=O)cc1 (stereo not shown) | 2.08
COc1ccc(S(=O)(=O)N(C)c2ccc(C(=O)Nc3ccccc3C(=O)N3CCOCC3)cc2)cc1 | -6.94
COc1ccc(CNC(=O)C/C(C)=N/NC(=O)COc2ccc(Br)cc2)cc1 | -33.3
COCC(C)n1c(C)cc(C(=O)COC(=O)/C=C/c2cccc(F)c2)c1C (stereo not shown) | -31.6
CCCCCCCNC(=O)C1(CC2CC(c3ccc(Cl)cc3)=NO2)CCN(C(=O)OC(C)(C)C)CC1 (stereo not shown) | 21.1
CCN(CC)C(=O)CSc1nc2ccccc2o1 | 5.03
O=C(NCCCn1ccnc1)Nc1ccc2c(c1)OCO2 | 23.9

SMILES | hERG current change (%, negative = inhibition) at 10uM [%]
C(=N\N=C\c1ccccn1)/c1ccccn1 | -0.482
COc1cccc(CNC(=O)c2ccc(OC)c(S(=O)(=O)NC3CCCC3)c2)c1 | -23.7
O=C(/C=C/c1cccs1)c1cc(F)ccc1OC(=O)N1CCOCC1 | -27.2
COC(=O)c1ccccc1S(=O)(=O)N1CCC(C(=O)OCC(=O)NCC(F)(F)F)CC1 | -27.1
CC(N=Cc1c(O)[nH]c(=O)[nH]c1=O)c1ccccc1 (stereo not shown) | 3.68
O=C(CCC1CCCC1)N=C1SC2CS(=O)(=O)CC2N1c1ccccc1F (stereo not shown) | 11.2
O=C(OCC(=O)N1CCCC1=O)C1CCN(S(=O)(=O)c2ccc(Cl)c(C(F)(F)F)c2)CC1 | 5.31
CCC1(CC)Cc2ccccc2-c2[nH]c(=S)[nH]c(=O)c21 | 2.43
Cc1ccc(C)c(NC(=O)/C(C#N)=C/c2cn(CC(=O)NCc3ccco3)c3ccccc23)c1 | 17.5
COc1cc(OC)cc(-n2nnnc2SCC(=O)NC2CCCC2)c1 | -12.8
C=CCN1CC(=O)N2C(c3ccccc3)c3[nH]c4ccccc4c3C[C@H]2C1=O (stereo partly shown) | -31.6
Cc1cc(NC(=O)CN2C(=O)c3ccccc3S2(=O)=O)no1 | 10.2
O=C(c1ccc(N2CCN(S(=O)(=O)c3ccccc3)CC2)c([N+](=O)[O-])c1)N1CCOCC1 | -35.1
O=[N+]([O-])c1ccc2nc(NCCCO)nc(-c3ccccc3)c2c1 | -22.7
O=C(/C=C/c1ccc(Cl)cc1)Nc1ccc(CN2CCOCC2)cc1 | -28
CC(=O)Nc1ccc(OCc2cccc3ccccc23)cc1 | 7.91
O=C(C[n+]1ccc(C(=O)N/N=C/c2ccc(Cl)cc2Cl)cc1)c1ccccc1.[Br-] | -74.8
CCCOc1ccc(C(=O)Nc2cc(-c3nn4c(C)nnc4s3)ccc2C)cc1 | 15
CCOC(=O)C1=C(c2ccccc2)Nc2c(c(=O)n(C)c(=O)n2C)C1c1ccc(O)c(OC)c1 (stereo not shown) | 1.68
Cc1ccccc1NC(=O)C1CCCN1C(=O)NC1CCCCC1 (stereo not shown) | 15.1
O=S(=O)(c1ccc(F)cc1)N1CCC(n2cnc3ccccc32)CC1 | -39.7
Cc1cc(NC(=O)c2cc([N+](=O)[O-])ccc2Cl)no1 | 8.65
